Hit rate of the full screen: of about 360,000 compounds, about 2,600 (0.72%) were called active. The inconclusive results got no clear call from the source; some entries with a clear call stand among them for comparison. Calls come from the whole dose curve; as a rule, active = well fitted inhibition curve with a large enough effect; inconclusive = small, poorly fitted or top-dose-only effect; inactive = no such curve, though single readings can be large or run the other way. Potencies of inconclusive entries are doubtful fits and often do not repeat.
experiment: Primary qHTS for Inhibitors of ATXN expression; details: HEK-293 ATXN2-luciferase reporter, luminescence, 24 h; activity change, negative = inhibition: at 57 µM (top of the series); note: nearly all actives have a fitted effect of over 55% in size
Outline: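 ATXN2-luciferase reporter cells (luciferase flanked by upstream and downstream ATXN2 gene portions) were treated 24 h at 37 °C with compounds at up to 57 uM. SteadyGlo luminescence gave expression; GF-AFC fluorescence gave viability.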
% is set by controls: 0 for no effect and ±100 for the full control effect; potency is the fitted concentration of half-maximal effect; tags give direction and shape of the fitted curve.

SMILES	activity change, negative = inhibition	Potency
COCCN1C(=O)C(=O)/C(=C(/O)c2ccc(S(=O)(=O)N3CCOCC3)cc2)C1c1cccc(O)c1 (stereo not given)	inactive: 4.29%	
Oc1ccccc1C1CCCCC1c1ccccc1 (stereo not given)		inconclusive: 37.7 µM [inhibitor, single point]
COc1ccc([N+](=O)[O-])cc1/C=N/NC(=O)CNC(=O)c1cccc(F)c1	inactive: -22.5%	
COCCOC(=O)c1ccc(NC(=O)COc2ccc([N+](=O)[O-])cc2)cc1		inconclusive: 0.0027 µM [inhibitor, full curve, poor fit]
Cc1ccc(NC(=O)CSC2=NCCN2)cc1	inactive: 13.5%	
C[C@H](O)C#Cc1cnc2c(c1)C(=O)N([C@H](C)CO)C[C@@H](C)[C@H](CN(C)C(=O)Nc1ccc(C(F)(F)F)cc1)O2	inactive: -4.78%	
O=[N+]([O-])c1ccc(NS(=O)(=O)c2ccc(Cl)c(Cl)c2)cc1		inconclusive: 15.8 µM [inhibitor, partial curve]
Cc1cc(C)cc(NC(=O)Cn2c(=O)oc3cc(S(=O)(=O)N4CCC(C)CC4)ccc32)c1		inconclusive: 20 µM [inhibitor, single point]
S=C(c1ccc(-c2ccccc2)cc1)N1CCOCC1		inconclusive: 12.6 µM [inhibitor, partial curve, poor fit]
CCn1c(=O)n(CC)c2cc(N3CCCC3)c(NC(=O)c3ccccc3)cc21		inconclusive: 28.2 µM [inhibitor, partial curve, poor fit]
Cc1cccc(C)c1NC(=O)C(c1ccccc1OC(F)(F)F)N1CCN(C/C=C/c2ccccc2)CC1 (stereo not given)	inactive: 0%	
O=C(CCc1nnc(-c2ccc(-c3ccccc3)cc2)o1)NCCc1ccccn1		inconclusive: 16.8 µM [inhibitor, partial curve, poor fit]
CCn1c2c(c(=O)n3ncc(C(=O)N4CCN(c5ccc(C(C)=O)cc5)CC4)c13)CN(Cc1ccc(OC)cc1)CC2		inconclusive: 15.8 µM [inhibitor, partial curve, poor fit]
COC(=O)c1cccc(N2C(=O)C[C@](Sc3ccc(C)cc3)(C(=O)OC)[C@H]2c2ccccc2)c1		inconclusive: 22.4 µM [inhibitor, partial curve, poor fit]
Cc1onc(-c2ccccc2)c1C(=O)N/N=C/c1c[nH]c2ccccc12		inconclusive: 5.62 µM [inhibitor, full curve, poor fit]
O=S(=O)(c1ccccc1)c1nc(-c2ccccc2)oc1N1CCCCC1	inactive: -4.34%	
COc1ccc(-c2nc3ccc(Br)cn3c2Cc2ccccc2C(F)(F)F)cc1OC	inactive: 0%	
COc1ccc(CN2[C@@H](CC(C)=O)c3cc(C(F)(F)F)ccc3S2(=O)=O)cc1	inactive: -7.23%	
CC1CCN(c2ccc(-c3ccc(NC(=O)C(F)(F)F)cc3)nn2)CC1		inconclusive: 3.16 µM [inhibitor, full curve, poor fit]
Cc1c(NC(=O)c2cccc(-c3cc4ccccc4oc3=O)c2)cccc1-c1nc2ncccc2o1	inactive: 11.2%	
C[C@H](CO)N1C[C@H](C)[C@H](CN(C)Cc2ccc(-c3ccccc3)cc2)Oc2ccc(NS(=O)(=O)c3ccccc3)cc2CC1=O		inconclusive: 35.5 µM [inhibitor, single point]
COc1ccc(-c2nc(-c3cccs3)no2)cc1		inconclusive: 39.8 µM [inhibitor, single point]
Nc1nc2ccccc2n1CCOc1ccc(Cl)cc1	inactive: -26%	
Cc1ccc(N(C(=O)Cc2c[nH]c3ccccc23)C(C(=O)NC2CCCCC2)c2ccco2)cc1 (stereo not given)		inconclusive: 39.8 µM [inhibitor, single point]

SMILES	activity change, negative = inhibition	Potency
O=C(Nc1ccccc1N1CCCC1)C1CCN(C(=O)c2ccc(F)cc2)CC1	inactive: 4.47%	
N/C(=N\OCC(=O)Nc1ccc(F)c(Cl)c1)c1ccccc1	inactive: -4.88%	
CCn1c2ccccc2c2nc3cc(OC)c(OC)cc3nc21		inconclusive: 15.8 µM [inhibitor, partial curve, poor fit]
CCOc1ccc(-c2ccc(SC)nn2)cc1		inconclusive: 9.47 µM [inhibitor, partial curve, poor fit]
COc1ccc(-c2nnc(NC(=O)C(C)C)o2)cc1	inactive: 13.7%	
COc1cccc2c1C(CO)N1C(C#N)C3CC(C(=O)O)C(C1C2)N3C (stereo not given)		active: 0.282 µM
CCOc1ccc(N(C)S(=O)(=O)c2ccc(C)c(C(=O)N3CCN(Cc4ccc5c(c4)OCO5)CC3)c2)cc1		inconclusive: 31.6 µM [inhibitor, single point]
CCCCN(CC)CCCNC(=O)c1cc2c(=O)n(CC)c3ccccc3c2s1		inconclusive: 17.8 µM [inhibitor, single point]
CCCCCCCCC(=O)N/N=C(\C)c1ccc(O)cc1O		active: 17.8 µM
Cc1ccc(-c2nnc3ccc(SCC(=O)N4CCCc5ccccc54)nn23)cc1		inconclusive: 7.94 µM [inhibitor, partial curve, poor fit]
COC(=O)c1c(NC(=O)/C=C/c2ccco2)sc2c1CCC2	inactive: -3.61%	
CSc1ccccc1NC(=O)c1ccccc1N(Cc1ccccc1)S(C)(=O)=O	inactive: -1.17%	
COc1ccc(C(CNC(=O)c2oc3cc(C)c(Cl)cc3c2C)N2CCCCC2)cc1 (stereo not given)	inactive: 13.7%	
O=C(Nc1ccc2c(c1)OCO2)c1cc(C2CCCCN2S(=O)(=O)c2cccs2)on1 (stereo not given)	inactive: 2.83%	
COc1ccc(CN(C)C(=S)Nc2ccc(OC(F)F)cc2)cc1	inactive: -25.1%	
COc1ccc(/C=C2\SC(=O)N(CCC(=O)N3CCCCC3CCO)C2=O)cc1 (stereo not given)	inactive: 4.15%	
c1ccc(-n2nnc3c(N4CCOCC4)ncnc32)cc1		inconclusive: 11.2 µM [inhibitor, single point]
COc1ccc(NS(=O)(=O)c2ccc(-c3cnc(C4CC4)o3)cc2)cc1Cl		inconclusive: 5.62 µM [inhibitor, partial curve, poor fit]
COc1c(Cl)cc(Cl)cc1/C=C/C(=O)c1ccc(NC(=O)c2cccs2)cc1		active: 12.6 µM
CSc1sc(C(=O)NN)c2c1C1(CCC2)SCCS1		inconclusive: 28.2 µM [inhibitor, partial curve]
CC1(c2ccc3noc(-c4ccccc4)c3c2)OCCO1	inactive: -0.416%	
NC(Cc1ccc(Cl)cc1)c1csc(NC(=O)Nc2ccccc2)n1 (stereo not given)		inconclusive: 39.8 µM [inhibitor, single point]
CCc1cc(=O)oc2c(C)c3c(cc12)CN(CCc1ccccc1OC)CO3	inactive: -14.6%	
CCOC(=O)C1CCN(c2ccccc2CN2CCN(c3ccccc3OCC)CC2)CC1	inactive: 4.07%	

SMILES	activity change, negative = inhibition	Potency
COc1ccc(C2c3ccc4ccccc4c3Oc3ncn(CCCO)c(=N)c32)cc1 (stereo not given)		active: 25.1 µM
CCn1c(C(=O)NCc2ccccc2Br)cc2oc3ccccc3c21	inactive: 57.3%	
COc1cc(/C=N/Nc2nn3cnnc3c3ccccc23)ccc1O	inactive: 15.3%	
CC(=O)Oc1ccc(OC(C)=O)c(SCCCCCN2CCOCC2)c1		inconclusive: 39.8 µM [inhibitor, single point]
Cc1cccc(N2CCN(C(c3ccncc3)c3nnnn3C(C)(C)C)CC2)c1C (stereo not given)		inconclusive: 1.34 µM [inhibitor, full curve, poor fit]
C=C1C(=O)[C@]23C[C@H]1CCC2[C@@]1(C)C(C[C@@H]3O)[C@](C)(C(=O)OC)CC[C@@H]1OC(C)=O (stereo not given in full)		active: 2.51 µM
Cc1sc2ncnc(NCc3ccccc3)c2c1C		inconclusive: 10 µM [inhibitor, partial curve]
COc1ccccc1NC(=O)Nc1nc(C(N)CC(C)C)cs1 (stereo not given)		inconclusive: 39.8 µM [inhibitor, single point]
Cc1ccc2[nH]cc(/C=C/c3cc[n+](C)cc3)c2c1	inconclusive: -44.8% [inhibitor]	
CC(OC(=O)c1cccc(O)c1)C(=O)N(C)Cc1ccccc1 (stereo not given)	inactive: 10.4%	
Cc1ccc(C(=O)N/C(=C\c2ccc(Br)cc2)c2nc(=S)[nH][nH]2)cc1		inconclusive: 31.6 µM [inhibitor, single point]
CCCCN1C(=O)C(O)(CC(=O)c2ccco2)c2cc(Br)ccc21 (stereo not given)	inactive: -11.5%	
O=C(Nc1ccc([N+](=O)[O-])cc1)N1CCCCCC1	inactive: 9.15%	
CCCCCCNC(=O)OC12CN(C(=O)OC(C)C)N(C(=O)OC(C)C)CC1(O)CN(S(=O)(=O)c1ccc(C)cc1)C2 (stereo not given)		inconclusive: 31.6 µM [inhibitor, single point]
Cc1cccc(NC(=O)c2nc[nH]c2C(=O)NCCCNC(=O)c2[nH]cnc2C(=O)Nc2cccc(C)c2)c1	inactive: 12.2%	
Cc1ccc(S(=O)(=O)N2CCCCC2)cc1C(=O)N(C)CC(=O)Nc1ccc(Cl)c(C(F)(F)F)c1		inconclusive: 25.1 µM [inhibitor, partial curve]
Cc1cc(=O)n2[nH]c(C)c(-c3ccc(Cl)cc3)c2n1		inconclusive: 20 µM [inhibitor, single point]
O=S(=O)(N1CCCCC1)N1CCN(CC(O)COc2ccc3cc(Br)ccc3c2)CC1 (stereo not given)		inconclusive: 14.1 µM [inhibitor, partial curve, poor fit]
COC(=O)C1=C(C(=O)OC)[C@@H]2N(C)c3ccccc3[C@@]23C[C@@H](C(=O)OC)N(C(=O)c2ccc(Br)cc2)C3=N1		inconclusive: 28.2 µM [inhibitor, partial curve]
Cc1cnc(Nc2ccc(CN3CCOCC3)cc2)nc1Nc1cccc(S(=O)(=O)NC(C)(C)C)c1	inactive: -9.28%	
COc1ccccc1NC(=O)N1CCN(Cc2nc3ccc(C)cc3o2)CC1	inactive: 7.48%	
O=C(O)c1ccccc1N/N=C\c1ccnc2ccccc12		inconclusive: 10 µM [inhibitor, partial curve, poor fit]

— PubChem BioAssay AID1745845 (National Center for Advancing Translational Sciences (NCATS), 2022)
